According to article PMC6919601, “Identification of Plasmodium dipeptidyl aminopeptidase allosteric inhibitors by high throughput screening” (PLoS ONE, 2019):
Out of some 110,000 compounds screened, about 230 (0.21%) showed an effect of 50% or more. The list shows a part of the results.

biological target: DPAP1 (Plasmodium falciparum, UniProt Q8IIJ9); test: primary screen, percent inhibition; read by cleavage of a fluorogenic dipeptide substrate; higher = more effect of the substance; design: species or system P. falciparum D10 trophozoite lysates; single well
Sequence (Q8IIJ9 whole entry, looked up): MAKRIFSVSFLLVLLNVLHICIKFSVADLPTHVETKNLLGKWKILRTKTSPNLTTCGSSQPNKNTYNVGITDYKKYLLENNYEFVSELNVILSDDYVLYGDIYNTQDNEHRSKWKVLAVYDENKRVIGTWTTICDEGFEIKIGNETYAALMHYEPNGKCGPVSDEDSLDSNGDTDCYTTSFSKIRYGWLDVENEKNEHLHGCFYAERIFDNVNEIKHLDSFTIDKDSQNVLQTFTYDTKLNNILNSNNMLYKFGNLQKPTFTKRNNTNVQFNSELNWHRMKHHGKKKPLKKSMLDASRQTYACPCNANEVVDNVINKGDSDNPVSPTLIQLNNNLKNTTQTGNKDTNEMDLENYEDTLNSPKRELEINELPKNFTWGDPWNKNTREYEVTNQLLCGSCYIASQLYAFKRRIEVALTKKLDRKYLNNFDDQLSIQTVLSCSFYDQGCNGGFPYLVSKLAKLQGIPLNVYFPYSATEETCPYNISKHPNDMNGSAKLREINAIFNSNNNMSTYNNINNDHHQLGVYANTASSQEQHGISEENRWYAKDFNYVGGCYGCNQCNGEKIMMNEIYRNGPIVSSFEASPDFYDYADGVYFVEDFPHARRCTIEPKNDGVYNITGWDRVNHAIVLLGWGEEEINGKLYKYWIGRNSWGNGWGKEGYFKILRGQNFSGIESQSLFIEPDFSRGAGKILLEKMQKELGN
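Further: 30 min substrate incubation versus DMSO and 10 µM JCP410 controls.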

| SMILES | % Inhibition @ 10 uM [%] |
| --- | --- |
| COc1ccc2nc(C)cc(Nc3cccc(Cl)c3)c2c1 | -2.67 |
| CC(C)CCOc1ccc(C(=O)CCNC(CC(C)C)C(=O)O)cc1 (stereo not shown) | 30.1 |
| CC1CN(C)C(c2ccccc2)C(C)C12NC(=O)NC2=O (stereo not shown) | -6.25 |
| CCOCCCNC(=O)C1CCN(c2nc3ccc(CC)cc3s2)CC1 | -1.31 |
| CCOC(=O)N1CCC(/N=c2\c(O)c(O)\c2=N/CCCN2CCN(C3CCCCC3)CC2)CC1 | -3.21 |
| Cc1ccccc1C(=O)N(Cc1cccs1)C1CCS(=O)(=O)C1 (stereo not shown) | 1.64 |
| c1ccc(CN2CCC(N3CCOCC3)CC2)cc1 | 0.217 |
| Cn1c(=O)c(=O)[nH]c2c(=O)oc3ccccc3c21 | 0.974 |
| COc1ccc(NC2CC(=O)N(c3ccc(N4CCOCC4)cc3)C2=O)cc1 (stereo not shown) | 3.1 |
| CCc1ccc(C(=O)NC2=NC(=O)CC(c3ccc(C)cc3)N2)cc1 (stereo not shown) | 2.65 |
| COc1ccc(N2C(=O)C(Cl)=C(Nc3ccccc3C)C2=O)cc1 | -5.48 |
| N#Cc1c(SCC(=O)NCCc2ccccc2)nsc1SCC(=O)NCCc1ccccc1 | -1.24 |
| O=C(O)c1ccccc1C(=O)N1CCN(Cc2ccccc2)CC1 | -2.67 |
| NC(=O)c1ccc(NC(=O)CCC2CCCC2)cc1 | -1.65 |
| COc1ccc(-n2cccc2/C=C2\C(=N)N3N=C(c4ccco4)SC3=NC2=O)cc1 | 0.208 |
| O=C(CC(Nc1ccccc1)c1ccccc1)c1ccccc1 (stereo not shown) | -2.28 |
| Cc1ccc(N2C(=O)NC(=O)/C(=C/NCC(=O)O)C2=O)cc1C | -0.736 |
| C=CC1OCC2(COC(C)=O)C(C)C=C(C)C1C2C (stereo not shown) | 1.54 |
| CC(C)c1ccc(C2=CC(c3cccc(Br)c3)n3ncnc3N2)cc1 (stereo not shown) | -1.48 |
| C=Cc1ccc(Cn2c(C(=O)O)c(CNCc3ccc4c(c3)OCO4)c3ccc(OC)cc32)cc1 | 8.11 |
| O=C(/C=C/c1cccc(Cl)c1)OCCN1CCN(C2=NS(=O)(=O)c3ccccc32)CC1 | -1.47 |
| Cc1cc(C(=O)N2CCOCC2)c2c(C)nn(-c3ccccc3)c2n1 | 2.12 |
| O=C(CSc1ccc(-c2cccs2)nn1)c1ccccc1 | 1.68 |
| O=S(=O)(c1ccc(Br)c(S(=O)(=O)N2CCCCC2)c1)N1CCCCC1 | -3.01 |
| CC(Oc1ccccc1Cl)C(=O)NCc1ccccn1 (stereo not shown) | 0.35 |

| SMILES | % Inhibition @ 10 uM [%] |
| --- | --- |
| CCOc1ccccc1/C=c1\sc2nc(-c3ccccc3Br)nn2c1=O | -1.18 |
| Cc1nonc1NC(=O)c1cc2ccccc2oc1=O | -1.47 |
| O=C(Nc1cccnc1)c1ccc2c(c1)C(=O)N(c1ccccc1-c1ccccc1)C2=O | 12.3 |
| COc1ccc(CC(=O)Nc2cc(Cl)c(Cl)cc2Cl)cc1 | -0.856 |
| N#CC1=C(N)Oc2nc(-c3ccccc3)[nH]c2C1c1cccnc1 (stereo not shown) | 3.45 |
| COc1cccc(OCC(O)CN2CCN(c3ccccc3)CC2)c1 (stereo not shown) | -5.7 |
| CC(C)CN1CC(=O)C(c2nc3ccccc3s2)=C1N | -4.82 |
| Cc1ccc(/C=C2\Sc3ccccc3C2=O)s1 | -5 |
| O=C(C1CCCN(c2nnc(-n3cccc3)s2)C1)N1CCC2(CC1)OCCO2 (stereo not shown) | 1.15 |
| COc1ccc(-c2[nH]nc3nc(-c4ccccc4C)cc(C(=O)O)c23)cc1 | -5.42 |
| CCOC(=O)C1=C(c2ccccc2)NC(=O)NC1c1ccccc1OC (stereo not shown) | 6.22 |
| CN1CCN(CCOCCOc2c(Cl)cc(Cl)cc2Cl)CC1 | -3.65 |
| O=C1N=C(N2CCCCC2)S/C1=C/c1cccc2ccccc12 | -0.597 |
| CC(=O)Nc1ccc(S(=O)(=O)N2CCCc3ccccc32)cc1 | -0.687 |
| CCOc1ccc(C(=O)Nc2ccccc2)cc1 | 1.83 |
| CCCCNS(=O)(=O)c1ccc(F)c(C(=O)O)c1F | -2.26 |
| CCCC1CCC(C2=N/C(=C\c3cc(OC)c(OC)cc3OC)C(=O)O2)CC1 (stereo not shown) | -3.33 |
| Cc1nc(O)nc(O)c1S(=O)(=O)NCc1nnc(O)c2ccccc12 | -1.82 |
| Cc1ccnc(NC(=O)CN2C(=O)CSc3ncccc32)c1 | -0.637 |
| CCc1c(C)sc(N)c1C(=O)NCc1cccnc1 | 2.08 |
| Nc1cccc2ccc(S(=O)(=O)NCCO)cc12 | -8.28 |
| CNS(=O)(=O)c1cn(CC(=O)N2CCCCCC2)cc1S(=O)(=O)NC | -5.51 |
| O=C1OC(c2ccc(Cl)cc2Cl)=N/C1=C\c1ccccc1F | 0.434 |
| COc1ccc(N2CCN(CC(O)COc3cccc(OC)c3)CC2)cc1 (stereo not shown) | -0.185 |
| N#C/C(=C\c1c(Oc2ccc(Br)cc2)nc2ccccn2c1=O)C(=O)N1CCCCC1 | 7.65 |

| SMILES | % Inhibition @ 10 uM [%] |
| --- | --- |
| CN(CC(=O)NCCc1ccc(Cl)cc1)S(=O)(=O)c1cc(Br)cnc1N | -1.72 |
| CN(C(=O)COc1ccc(-c2nn(C)c(=O)c3ccccc23)cc1)C1CCCCC1 | 1.79 |
| CCN1C(=O)C(=CNc2ccccc2Br)C(=O)N(CC)C1=O | -1.06 |
| CCOC(=O)N1CCN(c2c(N3CCC(N4CCCCC4)CC3)c(=O)c2=O)CC1 | -3.21 |
| CCOC(=O)c1sc(-c2ccc(OC)cc2)cc1NC(C)=O | 4.6 |
| CCOC(=O)c1sc(NC(=O)c2ccc(Br)o2)c(C(=O)OCC)c1C | 3.67 |
| CCOC(=O)N1CCN(CC(O)COc2cc(C)ccc2C(C)C)CC1 (stereo not shown) | 14.3 |
| Cc1cccc(NC(=O)c2sc(Cl)nc2C)c1C | -0.884 |
| COc1cc(-c2nnc3sc(Cc4ccc(Cl)cc4)nn23)cc(OC)c1OC | 32.2 |
| CN(C)c1ccc2c(c1)OC(N)=C(C#N)C2c1coc2ccccc2c1=O (stereo not shown) | -1.64 |
| O=C(CCCc1nnc2n3nc(-c4ccccc4)nc3c3ccccc3n12)NCC1CCCO1 (stereo not shown) | 2.04 |
| COc1cc(/C=C2\C(=N)N3N=C(N4CCOCC4)SC3=NC2=O)ccc1OCc1ccccc1 | -1.66 |
| O=C(Nc1ccc(F)cc1F)C(c1ccccc1)c1ccccc1 | 0.467 |
| Cc1ccc2c(CNCc3ccc4c(c3)OCO4)c(C(=O)O)n(Cc3ccc(F)cc3Cl)c2c1 | 9.8 |
| COCCNC(=O)Cn1nc(C)n2c(cc3sccc32)c1=O | -1.58 |
| COc1ccccc1C(=O)Nc1ccc(-c2cn3ccccc3n2)cc1 | 6.61 |
| Cc1nn(Cc2cccc(C(=O)O)c2)c(C)c1Cl | -4.67 |
| CCN1CCCC1CNC(=O)c1cc(C)nc2c1c(C)nn2-c1ccc(C)cc1 (stereo not shown) | -4.97 |
| N#CC1=C(N)SC(N)=C(C#N)C1c1cccc([N+](=O)[O-])c1 | 26.3 |
| CSc1nc2c(c(=O)n1C1CCCCC1)C1(CCCCC1)Cc1ccccc1-2 | -1.69 |
| COc1ccc(C(C)NC(=O)CSCc2cccc(Br)c2)cc1 (stereo not shown) | -3.52 |
| CC(NC(=O)CN(C1CCCCC1)S(C)(=O)=O)c1ccccc1 (stereo not shown) | 9.17 |
| Cc1ccc2c(c1)-c1c(cnn1CC(=O)NC(C)c1ccccc1)CO2 (stereo not shown) | 4.33 |
| COc1cccc(/C=c2\sc3nnc(-c4ccccc4)n3c2=O)c1OC | -1.81 |
| O=[N+]([O-])c1ccc2nc(/C=C(\O)c3ccc(Cl)cc3)c(/C=C(\O)c3ccc(Cl)cc3)nc2c1 | 0.774 |

| SMILES | % Inhibition @ 10 uM [%] |
| --- | --- |
| CC1=Nc2ncnn2C(c2ccccc2C)/C1=C(/O)OCc1ccccc1 (stereo not shown) | -0.326 |
| CCN(CC)CCNC(=O)CCNC(=O)c1cc(OC)c(OC)c(OC)c1 | -0.519 |
| COc1ccc(CCN2C(=O)CSC2c2ccc3cccc(O)c3n2)cc1OC (stereo not shown) | -3.95 |
| CCCCNc1nc(Oc2ccc(=O)n(C)n2)nc(N(CC)CC)n1 | -5.33 |
| CC(C)C[C@H](NC(=O)c1ccc(N2CCOCC2)cc1)C(=O)NC1(C#N)CCC1 | -12 |
| Nc1nonc1C(=O)NCCNCc1ccc(Br)cc1 | -1.71 |
| Cc1cc(C)n2nc(SCC(=O)NC3CCCCC3)nc2n1 | 2.9 |
| CC(C)c1ccc(-c2nc(-c3ccccc3)c(-c3ccccc3)[nH]2)cc1 | -4.32 |
| Cc1nn(CC(=O)N(C)Cc2ccccc2)c(=O)c2cc3sccc3n12 | 0.137 |
| CC(C)NC(=O)C(=O)NCc1ccc(Cl)cc1Cl | 2.94 |
| CCOC(=O)c1c(C)[nH]c(C)c1S(=O)(=O)NCc1ccc(OC)cc1 | 1.4 |
| COc1ccc(CN2C(=O)NC(=O)/C(=C\c3ccc(O)c(O)c3)C2=O)cc1 | -2.39 |
| CCOc1cc(/C=C/c2ccccc2OC)cc(=O)c2c(C)oc(C)c12 | 1.81 |
| COc1ccc(/C=C2/C(=O)N=C3SCCN32)cc1 | 8.62 |
| CCOc1ccc(C(=O)Nc2cccc(C)c2)cc1 | -3.45 |
| O=C(O)c1cccc(CSc2nnc(COc3ccccc3)o2)c1 | -0.183 |
| Cc1ccc2c(c1)C1(C(=O)N2C)N2CC3(C)CN1CC(C)(C2)C3=O (stereo not shown) | -0.267 |
| CC1CCCC(NCc2c(C(=O)O)n(C)c3ccccc23)C1C (stereo not shown) | -3.21 |
| O=C(CCn1cnnn1)n1nnc2ccccc21 | 4.57 |
| Cc1cccc(C(=O)NC2(C(F)(F)F)C(=O)Nc3c2c(=O)[nH]c(=O)n3-c2ccccc2)c1 (stereo not shown) | -2.67 |
| CCOC(=O)c1cc(S(=O)(=O)N2CC(C)CC(C)C2)cn1C (stereo not shown) | -1.06 |
| COCCNC(=O)CCCc1nnc2n3nc(-c4ccccc4)nc3c3ccccc3n12 | 2.04 |
| c1ccc(OCCN2CCCCC2)cc1 | 2.76 |
| COc1ccc(Cn2c(SCc3ccc(C(=O)NCC4CCCO4)cc3)nc3cccnc32)cc1 (stereo not shown) | 9.89 |
| CCOC(=O)c1oc2c(c1C)-c1nn(CC)cc1CC2 | -1.75 |
